Measurements as given in ChEMBL document CHEMBL4888484, “Replenishing the malaria drug discovery pipeline: Screening and hit evaluation of the MMV Hit Generation Library 1 (HGL1) against asexual blood stage Plasmodium falciparum ,using a nano luciferase reporter read-out” (2022).
Out of some 150,000 compounds screened, about 540 (0.36%) showed an effect of 50% or more. The list shows a part of the results.

Tested on: Plasmodium falciparum
Assay: Primary screen in NF54 nanoGlo assay, in single point, at 2uM, 72h; a lower Z score goes with more inhibition
Type: functional, Erythrocyte
Conditions: timepoint 72 hour

SMILES	% Inhibition [%]	Z score
Cc1nn(C)cc1-c1n[nH]cc1Br	36	-4.11
Cc1nn(S(=O)(=O)c2cccc3nsnc23)c(C)c1Cl	-4	0.6
CC(=O)N1CCC[C@H](NC(=O)c2ccc(-c3ccc(C#N)c(Cl)c3)cc2)C1	-15	1.35
CCCCn1nc(-c2ccncc2)nc1[C@H](CC)n1cccn1	-10	1.48
CC1=Nc2ccccc2C12CCN(C(=O)Nc1cnn(C)c1)CC2	12	-2.23
CCCN1C(=O)CC[C@@H]2CN(C(=O)c3ccc4ccccc4n3)CC[C@@H]21	-12	2.42
O=C(C[C@H]1CCS(=O)(=O)C1)NCc1ccc2c(c1)OCO2	-7	1.01
CC1=NN(S(=O)(=O)c2ccc(Cl)cc2)[C@@](O)(C(F)F)C1	-41	4.86
COc1cc(-c2nccn2CCc2nc3c(s2)CCC3)cc2c1OCO2	-1	0.17
CCn1ccnc1CN1CC[C@@]2(CCCN(Cc3cccc(F)c3F)C2=O)C1	-10	1.38
Cc1cc(N2C(=O)C[C@H](N3CCN(C(c4ccccc4)c4ccccc4)CC3)C2=O)no1	1	-0.13
Cc1ccc(-c2cnc3nc(C)cnc3n2)c(-n2cccn2)c1	-11	1.45
CC1CCC(NC(=O)C2CCC(CNS(=O)(=O)c3ccc4c(c3)C(C)(C)C(=O)N4C)CC2)CC1 (stereo unspecified)	-2	0.16
Cc1ccc2sc(N(Cc3ccncc3)C(=O)Cc3ccc(F)cc3)nc2c1C	0	0.01
COC(=O)N[C@@H](C)C(=O)N(C)Cc1nc(C)c[nH]1	-9	1.21
Cn1ccnc1N1CCN(c2ccc(S(=O)(=O)C(F)F)cc2)CC1	-7	1.14
CC(C)[C@H](NC(=O)NC1CC12CCOCC2)C(F)(F)F (stereo partly specified)	-7	0.67
C[C@@H]1CN(CCN(C)C(=O)c2ccc(-c3ncn(C)n3)cc2)C[C@H](C)O1	-31	3.69
COc1ccccc1C/N=C1\C(c2cc(OC)c(OC)c(OC)c2)=Nc2ncnn21	-5	0.65
COc1ccc2c(ccn2CC(=O)N2CCCN(C(C)=O)CC2)c1	-12	1.96
CC(C)Cn1[nH]c(CC(=O)Nc2cncc3c2CCCC3)cc1=O	-6	1.02
CS(=O)(=O)N[C@H]1[C@H](NC(=O)CCc2ccsc2)[C@@H]2CCO[C@@H]21	1	-0.08
Cc1cc(C)c2nccc(NC[C@@](C)(O)CCCO)c2c1	-10	1.32
NC(=O)Cc1nc(CCCn2cccn2)n(CC(F)(F)F)n1	-10	1.91
Cc1cnc(C)c(NCCCN2CCCC2=O)n1	-6	1.23
CC1=NN(c2ccccc2)C(=O)C1(N1CCOCC1)N1CCOCC1	26	-2.96
Cc1csc(COC(=O)c2cn(C)nc2C(C)(C)C)n1	-13	1.48

SMILES	% Inhibition [%]	Z score
O=S(=O)(N1CCOCC1)N1CC2CCCCC2C1 (stereo unspecified)	-13	1.36
C[C@H](NC(=O)CN1C(=O)COc2ccc(Cl)cc21)c1cccnc1	-4	0.6
CC[C@@H](CNC(=O)C1CCCC1)N1CCCC1	4	-0.54
O=C(NC[C@H]1CCOC1)C1CCN(S(=O)(=O)c2ccc3c(c2)CCC3)CC1	15	-1.96
COC[C@H](NC(=O)c1csnc1C)c1ccc(Cl)cc1	-4	0.43
Fc1ccc(COc2ccc(CNc3nccs3)cc2)c(Cl)c1	32	-3.58
CC(C(=O)N1CCCCC1)N1CCC(c2ccccc2)C1 (stereo unspecified)	-10	1.4
CCCC(C)(C)NC(=O)c1cc(OC)c(OC)c(OC)c1	-10	1.42
CC1C(NCC2CCN(C3CC3)C2)CC1c1ccccc1 (stereo unspecified)	-2	0.17
Cc1ccc(C2=C[C@@H](c3ccccc3)n3nnnc3N2CC(=O)Nc2ccc(C)cc2C)cc1	-9	0.93
CCNc1nc(C(N)=O)c(NC(=O)c2ccccc2Br)s1	-16	2.17
O=C(CC(c1ccccc1)c1ccccc1)N1CCC[C@H](Oc2ccncc2)C1	4	-0.6
CC[C@H]1CN(S(=O)(=O)c2c(C)noc2C)CC[C@H]1CC(=O)N1CCC(C(=O)OC)CC1	33	-3.83
CCC(CC)C(=O)Nc1cc(Br)c(O)c(Br)c1	13	-1.6
Cn1cc(CN2CCC(C(=O)NCc3ccccc3F)CC2)c2cc(Cl)ccc21	-11	1.4
O=C(Nc1nnn[nH]1)c1ccc(OCC2CCCCC2)cc1	-6	0.88
COC(=O)C1(CNC(=O)C2CCC(F)(F)CC2)CCCCC1	-6	1.04
CC(C)c1nc(CC(=O)N2CC3CCCC(C3)C2)cs1	3	-0.31
Cc1noc(C)c1CN[C@H]1[C@H](O)[C@@H](n2cnc3ccccc32)[C@@H]2OC[C@H]1O2	4	-0.69
CC1(C)CCc2onc(CNC(=O)C[C@H]3CS(=O)(=O)c4ccccc4O3)c2C1	28	-3.12
Cc1cc(C)nc(N/C(=N/c2ccc(CC(=O)OC(C)C)cc2)NS(=O)(=O)c2ccc(Cl)cc2)n1	2	-0.22
Cc1c(NC(=O)c2ccc3ccccc3n2)cccc1-c1nnc2n1CCCCC2	-4	0.52
COC[C@@H](c1ccnn1C)n1cnc(-c2ccccc2)c1C=C(C)C	-4	0.71
CN(C)C(=O)Cn1cnc(NC(=O)c2cn(C)nc2-c2ccco2)n1	-9	1.75
COc1ccc(CS(=O)(=O)CCC(=O)NC(C)(C)C)cc1F	-8	1.06
CCCN1C[C@]23C=C[C@H](O2)[C@H](C(=O)NCc2cnn4cccnc24)[C@@H]3C1=O	-3	0.57
